About 260 (0.063%) of roughly 410,000 compounds were called active. Inconclusive means that the source gave no clear call. Such entries were picked first, then a sample of the others. Calls come from the whole dose curve; as a rule, active = well fitted activation curve with a large enough effect; inconclusive = small, poorly fitted or top-dose-only effect; inactive = no such curve, though single readings can be large or run the other way. Potencies of inconclusive entries are left out as doubtful fits.
assay: qHTS for compounds that reverse cellular toxicity of Amyloid beta (A-beta) peptide in yeast: Primary Screen; settings: yeast expressing A-beta42, growth rescue, OD600, 48 h; growth rescue: at 46.1 µM (top of the series), 0% DMSO, 100% iron-clioquinol control; note: nearly all actives have a fitted effect of over 55% in size
Method in brief: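 Yeast growth medium received pinned compounds, then yeast cells expressing toxic A-beta were added; plates incubated at 30 C for 48 hr. Growth read as absorbance at 600 nm, normalized to DMSO and equimolar FeCl3 plus clioquinol controls.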
Potency is the fitted concentration of half-maximal effect; tags give direction and shape of the fitted curve.

Q: For `Cc1ccc(OCc2nnc(SCC(=O)c3ccccc3)n2-c2ccccc2)cc1`, which Potency is on record?
A: inconclusive [activator, single point]

Q: With `Cc1cc2nc(C(C)(C)C)c(Cc3ccsc3)n2c(C)c1Br` as the compound, how does the Potency read?
A: inconclusive [activator, single point]

Q: With `Cc1ccc(C)c(NC(=O)c2ccc3nc(CCc4ccccc4)oc3c2)c1` as the compound, how does the “growth rescue” value read?
A: inactive: -0.792%

Q: For `Cc1ccc(S(=O)(=O)NC(=O)c2cccn2C)cc1`, which Potency is on record?
A: inconclusive [activator, single point]

Q: For `CC1=C(C(=O)OCC(C)C)C(c2cccs2)NC(=S)N1` (configuration not stated), which Potency is on record?
A: inconclusive [activator, single point]

Q: With `COC(=O)C1(C)NC(c2ccc(O)cc2)C2C(=O)N(c3ccc4c(c3)OCCO4)C(=O)C21` (configuration not stated) as the compound, how does the Potency read?
A: inconclusive [activator, full curve]

Q: For `COc1ccc(-n2ccn(CC(=O)NCCc3ccccc3)c(=O)c2=O)cc1OC`, which “growth rescue” value is on record?
A: inactive: 1.39%

Q: For `COc1ccc(C(C)(O)c2nc(/C=C/c3ccccc3)cs2)cc1` (configuration not stated), which Potency is on record?
A: inconclusive [activator, single point]

Q: With `Cc1ccc(Cl)cc1NC(=O)COC(=O)CC1CCCCC1` as the compound, how does the Potency read?
A: inconclusive [activator, single point]

Q: For `O=C(C1CCCCC1)N1CCC(CO)(Cc2ccccc2Cl)CC1`, which Potency is on record?
A: inconclusive [activator, partial curve, poor fit]

Q: Which Potency does the source give for `Cc1ccc(NC(=O)c2ccc(NCCN)c([N+](=O)[O-])c2)cc1Cl` here?
A: inconclusive [activator, partial curve, poor fit]

Q: With `Cc1ccc(/C=C2/C(=O)ON=C2c2ccccc2)o1` as the compound, how does the Potency read?
A: inconclusive [activator, partial curve, poor fit]

Q: With `Cc1oc(-c2cccc(Br)c2)nc1Cn1c(SCc2cccc(F)c2)nc2cccnc21` as the compound, how does the Potency read?
A: inconclusive [activator, single point]

Q: Which Potency does the source give for `Cc1nn(Cc2ccccc2)c(Cl)c1C(=O)OCc1nnc(-c2ccc(Cl)cc2)o1` here?
A: inconclusive [activator, partial curve, poor fit]

Q: For `Cc1nc2cc(NC(=O)C3COc4ccccc4O3)ccc2s1` (configuration not stated), which Potency is on record?
A: inconclusive [activator, single point]

Q: For `c1ccc(Oc2nc(-c3ccccn3)nc3ccccc23)cc1`, which Potency is on record?
A: inconclusive [activator, partial curve, poor fit]

Q: With `Cc1ccc(CNC(=O)/C=C/c2cccs2)cc1` as the compound, how does the Potency read?
A: inconclusive [activator, partial curve, poor fit]

Reference: PubChem BioAssay AID1347071 (National Center for Advancing Translational Sciences (NCATS), 2019)
